The antibiotic and cytotoxicity screens of Wong et al. (2023)
This is one part of the list.

Legend:
[1] = tested on: HSkMC (human skeletal muscle cells); experiment: cytotoxicity call (relative viability < 0.9); settings: 10 µM
[2] = tested on: HepG2; experiment: cytotoxicity call (relative viability < 0.9); settings: 10 µM
[3] = tested on: S. aureus RN4220; experiment: growth inhibition call (relative growth <= 0.2); settings: 50 µM

Row | SMILES | cytotoxicity call [1] | cytotoxicity call [2] | growth inhibition call [3]
1 | CNC(=O)CSP(=S)(OC)OC | inactive | inactive | inactive
2 | N[C@@H](C(=O)O)c1cc(=O)[nH]o1 | inactive | inactive | inactive
3 | C=C(C)[C@H]1O[C@H]2CC[C@@]3(C)[C@@](O)(CC[C@H]4[C@@H]5OC(C)(C)[C@H]6C[C@@H]7C(=C)Cc8c(Cl)cc9[nH]c(c5c9c8[C@@]76O)[C@@]43C)[C@]23O[C@@H]3[C@H]1O | inactive | inactive | inactive
4 | CN1[C@@H]2CC[C@H]1C[C@H](O)C2 | inactive | inactive | inactive
5 | COc1cc2c(cc1-c1cc3cc4ccoc4cc3oc1=O)OCO2 | inactive | inactive | inactive
6 | Nc1nc(N)nc(NC2CC2)n1 | inactive | inactive | inactive
7 | Cl.NNCc1ccccc1 | inactive | inactive | inactive
8 | O.O=c1ccc2cc(OC3OC(CO)C(O)C(O)C3O)c(O)cc2o1 (stereo unspecified) | inactive | inactive | inactive
9 | CCCCCC1C(=O)OC(C)C(NC(=O)c2cccc(NC=O)c2O)C(=O)OC(C)C1OC(=O)CC(C)C (stereo unspecified) [ANTIMYCIN A (A1 shown)] | – | – | inactive
10 | C/C(=C\[C@@H](N)C(=O)O)CP(=O)(O)O | inactive | inactive | inactive
11 | CN(C)C(=S)SSC(=S)N(C)C | inactive | active | active
